Among all 350,000 compounds or so, about 31,000 (8.9%) were called active. This list was built around the results that the source calls inconclusive (neither active nor inactive); the mix of calls is not that of the screen. Calls follow the shape of the dose curve; as a rule, active = well fitted inhibition curve with a large enough effect; inconclusive = small, poorly fitted or top-dose-only effect; inactive = no such curve, though single readings can be large or run the other way. Potencies beside an inconclusive call are fits to weak or partial responses and may not hold up.
What follows are compounds tested against Histone-lysine N-methyltransferase EHMT2 (Homo sapiens) (UniProt Q96KQ7) (assay: qHTS Assay for Inhibitors of Histone Lysine Methyltransferase G9a). Details: G9a H3K9 monomethylation, AlphaScreen, 2 h; activity, negative = inhibition: at 59 µM (top of the series) unless noted.
UniProt Q96KQ7, sequence (Q96KQ7 whole entry, looked up): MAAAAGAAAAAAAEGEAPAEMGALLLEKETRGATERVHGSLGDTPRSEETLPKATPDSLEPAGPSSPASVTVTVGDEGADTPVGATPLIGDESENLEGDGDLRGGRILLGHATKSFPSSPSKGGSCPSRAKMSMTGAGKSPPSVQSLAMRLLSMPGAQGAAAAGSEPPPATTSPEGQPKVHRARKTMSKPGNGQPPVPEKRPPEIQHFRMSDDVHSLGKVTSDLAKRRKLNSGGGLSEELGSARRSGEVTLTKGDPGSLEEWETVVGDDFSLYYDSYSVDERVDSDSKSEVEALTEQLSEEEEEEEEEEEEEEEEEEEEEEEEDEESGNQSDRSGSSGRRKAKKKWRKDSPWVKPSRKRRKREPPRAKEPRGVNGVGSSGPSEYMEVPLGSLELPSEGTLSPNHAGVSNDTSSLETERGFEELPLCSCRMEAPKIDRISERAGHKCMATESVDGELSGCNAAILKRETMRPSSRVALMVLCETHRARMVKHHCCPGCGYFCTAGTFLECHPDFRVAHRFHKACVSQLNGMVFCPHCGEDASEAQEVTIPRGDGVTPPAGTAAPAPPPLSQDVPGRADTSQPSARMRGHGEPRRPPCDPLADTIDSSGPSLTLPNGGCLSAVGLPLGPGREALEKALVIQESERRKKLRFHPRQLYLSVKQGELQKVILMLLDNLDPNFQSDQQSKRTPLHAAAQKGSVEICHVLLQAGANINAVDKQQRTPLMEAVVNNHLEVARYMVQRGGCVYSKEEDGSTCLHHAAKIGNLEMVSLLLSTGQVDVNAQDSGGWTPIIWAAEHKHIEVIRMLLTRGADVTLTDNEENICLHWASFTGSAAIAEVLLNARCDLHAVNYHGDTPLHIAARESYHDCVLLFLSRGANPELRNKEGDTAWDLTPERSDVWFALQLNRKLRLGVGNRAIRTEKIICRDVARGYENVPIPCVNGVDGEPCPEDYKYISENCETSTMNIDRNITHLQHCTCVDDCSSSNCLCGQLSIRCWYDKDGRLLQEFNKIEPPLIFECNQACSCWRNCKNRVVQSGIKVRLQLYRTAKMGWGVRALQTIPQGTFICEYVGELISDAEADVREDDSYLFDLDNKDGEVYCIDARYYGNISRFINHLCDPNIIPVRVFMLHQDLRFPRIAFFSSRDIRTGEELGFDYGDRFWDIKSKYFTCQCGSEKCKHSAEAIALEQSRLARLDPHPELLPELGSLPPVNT
Procedure, shortened: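 Signal arises when biotinylated H3K9 peptide, once monomethylated, bridges streptavidin donor and antibody-captured acceptor beads. Enzyme at 20 nM was preincubated 15 min with test compounds; peptide 500 nM and SAM 20 uM then reacted for 2 h.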
% is scaled to controls: 0 for no effect and ±100 for the full control effect; potency is read from the fitted curve at half-maximal effect; tags tell the direction and shape of the fitted curve.
Also: nearly all actives have a fitted effect of over 75% in size.

Row | SMILES | activity, negative = inhibition | Potency
1 | Cc1cccc(/N=C/c2c(O)c3ccccc3oc2=O)n1 | inactive: -36.6% [at 12.7 µM] | 
2 | CCOc1ccc(N2CC(C)Cn3c2nc2c3c(=O)n(CC(=O)O)c(=O)n2C)cc1 (stereo not given) |  | inactive
3 | CCOc1ccc(-n2c(O)c(/C=N/c3ccnn3Cc3ccncc3)c3ccccc3c2=O)cc1 |  | inconclusive: 89.1 µM [inhibitor, single point]
4 | CC(=O)c1cccc(NC(=O)C2CC(=O)N(c3ccc4c(c3)OCCO4)C2)c1 (stereo not given) |  | inconclusive: 35.5 µM [inhibitor, single point]
5 | O=C(N/N=C/c1cccnc1)c1ccccc1[N+](=O)[O-] |  | inactive
6 | COc1ccc(Cl)cc1-n1c(=S)sc2c(=O)[nH]c(SCC(=O)NCC3CCCO3)nc21 (stereo not given) |  | inconclusive: 89.1 µM [inhibitor, single point]
7 | CC(C)c1ccc(NC(=O)c2cn(C3CCCCC3)c(=O)c3c2c2ccccc2n3C)cc1 |  | inactive
8 | CCOC(=O)c1ccc(NC(=S)N(CCCN2CCCCCC2)Cc2ccco2)cc1 |  | inconclusive: 100 µM [inhibitor, single point]
9 | Cc1cc(C(=O)COc2cccnc2[N+](=O)[O-])c(C)n1-c1ccccc1 |  | inconclusive: 39.8 µM [inhibitor, single point]
10 | COC(=O)CCN(C)CCC(=O)OC | inactive: -2.76% [at 2.33 µM] | 
11 | COC(=O)c1ccc(CN(C(C)=O)c2ccccc2)o1 |  | inconclusive: 31.6 µM [inhibitor, partial curve, poor fit]
12 | COc1ccccc1N1CCN(CCNC(=O)Nc2cccc(C)c2C)CC1 |  | inconclusive: 56.2 µM [inhibitor, partial curve, poor fit]
13 | Cc1cccc(N2CCN(CCNC(=O)c3cc4c(s3)CS(=O)(=O)C4)CC2)c1C |  | inactive
14 | CC1(C)CC(=O)C/C(=N/Nc2nc3ccccc3s2)C1 |  | active: 50.1 µM
15 | Cc1cccc(NC(=O)CCN2CCN(C)CC2)c1 |  | inconclusive: 79.4 µM [inhibitor, single point]
16 | Cn1c(=O)c2cc3c(nc2n(C)c1=O)CC(c1ccccc1)CC3=O (stereo not given) |  | inactive
17 | CCCCn1c(=N)c(S(=O)(=O)c2ccccc2)cc2c(=O)n3cccc(C)c3nc21 |  | inactive
18 | NNC(=O)c1cc(-c2ccccc2)sc1N |  | inconclusive: 79.4 µM [inhibitor, partial curve, poor fit]
19 | Cc1nc2nc(SCC(=O)Nc3cccc(Cl)c3)nn2c(C)c1Cc1ccccc1 |  | inactive
20 | Nc1nc(N)c(N=Nc2ccc(SCC(=O)O)cc2)c(=O)[nH]1 |  | inconclusive: 79.4 µM [inhibitor, partial curve, poor fit]
21 | CCc1ccc(S(=O)(=O)Nc2cccc(-c3ccc4nnc(C)n4n3)c2)s1 |  | inconclusive: 50.1 µM [inhibitor, partial curve, poor fit]
22 | CC(C)Cn1cc(NC(=O)NCc2ccccc2)c2ccccc2c1=O |  | inconclusive: 11.2 µM [inhibitor, partial curve, poor fit]
23 | OC[C@H]1O[C@H](n2cnc3c(N[C@H]4CCC[C@@H]4O)ncnc32)[C@H](O)[C@@H]1O |  | inactive
24 | COc1ccccc1OCC(=O)Nc1nnc(-c2ccco2)s1 |  | inconclusive: 1.78 µM [inhibitor, full curve, poor fit]

Row | SMILES | activity, negative = inhibition | Potency
25 | O=c1ccc(NS(=O)(=O)c2ccccc2)cn1Cc1ccc(Cl)c(Cl)c1 |  | inconclusive: 22.4 µM [inhibitor, single point]
26 | Clc1ccccc1OCc1nn[nH]n1 | inconclusive: -53% [inhibitor] | 
27 | COc1ccc(NC(=O)N/C=C/c2ccc(Cl)cc2)cc1 |  | active: 20 µM
28 | CN(C)c1ccc(N=Nc2nc3ccccc3n2C)cc1 |  | inconclusive: 4.47 µM [inhibitor, single point]
29 | O=C(NCc1ccccc1Cl)c1cc(=O)[nH]c2ccccc12 |  | inconclusive: 89.1 µM [inhibitor, single point]
30 | Cc1cc2cc(C(=O)N3CCc4c([nH]c5ccccc45)C3c3ccccn3)ccc2o1 (stereo not given) | inconclusive: -88.1% [inhibitor] | 
31 | CCCCC(CC)C(=O)Nc1ccc(S(=O)(=O)Nc2nccs2)cc1 (stereo not given) |  | inconclusive: 70.8 µM [inhibitor, partial curve, poor fit]
32 | COc1ccc2cc(C(=O)N3CCN(c4cccc(C)c4C)CC3)[nH]c2c1 |  | inconclusive: 79.4 µM [inhibitor, single point]
33 | COc1ccc(-c2cn3cccnc3n2)cc1NC(=O)COc1ccccc1 |  | inactive
34 | O=S(=O)(NCc1ccccc1Cl)c1ccc(-c2cnc(C3CC3)o2)cc1 |  | inactive
35 | CCOc1ccc(S(=O)(=O)N2CCN(C(=S)NCc3ccco3)CC2)cc1 |  | inconclusive: 31.6 µM [inhibitor, single point]
36 | O=C(N/C(C(=O)N1CCOCC1)=C(\Sc1ncccn1)c1ccccc1)c1ccccc1 |  | inconclusive: 35.5 µM [inhibitor, single point]
37 | Cc1nc2ccc(NC(=O)c3cccs3)cc2c(=O)n1Cc1ccc(Cl)cc1 |  | inconclusive: 20 µM [inhibitor, single point]
38 | O=C(COC(=O)c1cccs1)Nc1ccc(S(=O)(=O)N2CCOCC2)cc1 |  | inconclusive: 89.1 µM [inhibitor, single point]
39 | Cc1cc(=S)cc(C)n1CCCO | inactive: 3.95% [at 2.33 µM] | 
40 | COc1ccc(NS(=O)(=O)c2cc3c4c(c2)C(C)C(=O)N4CCC3)cc1 (stereo not given) |  | inactive
41 | O=S(=O)(Nc1ccc(-n2cnnn2)cc1)c1cccs1 |  | inconclusive: 0.251 µM [inhibitor, full curve, poor fit]
42 | COc1ccc(C[C@@H]2CN3C(=NC[C@@H]3C)N2C[C@H](C)NC(=O)c2ccc(C)c(Br)c2)cc1 | inconclusive: -70.2% [inhibitor] | 
43 | CCC(=O)N1c2ccccc2CC1C(=O)NCCc1ccccc1Cl (stereo not given) |  | inactive
44 | CSCCC(NC(=O)c1ccco1)C(=O)OCC(=O)Nc1sccc1C#N (stereo not given) |  | inconclusive: 89.1 µM [inhibitor, single point]
45 | O=C(CNC(=O)c1ccccc1)OCCCOC(=O)CNC(=O)c1ccccc1 |  | inconclusive: 56.2 µM [inhibitor, partial curve, poor fit]
46 | Cc1nc(NCCN2CCOCC2)c2nnn(Cc3c(F)cccc3Cl)c2n1 |  | inactive
47 | Cc1ccccc1-c1nc(C#N)c(N2CCCCC2)o1 |  | active: 35.5 µM
48 | Cn1nc(C(=O)NCc2cccc(Cl)c2)c2c1-c1ccccc1SC2 |  | inactive

Row | SMILES | activity, negative = inhibition | Potency
49 | O=C(N/N=C/c1ccc2c(c1)OCO2)c1ccccn1 |  | inactive
50 | O=C(O)c1ccc2c(c1)ncn2C1CCCC1 |  | inconclusive: 89.1 µM [inhibitor, single point]
51 | O=c1[nH]nc(SCc2nnc(-c3ccc([N+](=O)[O-])cc3)o2)n1C1CCCCC1 |  | inconclusive: 79.4 µM [inhibitor, partial curve, poor fit]
52 | CS(=O)(=O)N(CC(=O)N1CCCCCC1)c1cccc(F)c1 |  | inactive
53 | COCC(C)NC(=O)c1oc2c(c1C)C1(CCC2)SCCS1 (stereo not given) |  | inconclusive: 89.1 µM [inhibitor, single point]
54 | COc1cccc(C(C(=O)NC2CCCC2)N(Cc2ccco2)C(=O)c2ccco2)c1OC (stereo not given) |  | inconclusive: 25.1 µM [inhibitor, single point]
55 | O=C(NCc1ccc(Cl)cc1)c1ccc(NC(=O)N2CC3CCCN3c3ccccc32)cc1 (stereo not given) |  | active: 10 µM
56 | Cc1cc(C)n2nc(C(=O)Nc3cccnc3)nc2n1 | inactive: -27.1% [at 12.7 µM] | 
57 | CC1=C(C(=O)OC2CCCCCC2)C(c2ccc(C)o2)C2=C(CCCC2=O)N1 (stereo not given) |  | inconclusive: 35.5 µM [inhibitor, partial curve, poor fit]
58 | CCOCCCNCc1ccc(OC)c(OC)c1 |  | inconclusive: 39.8 µM [inhibitor, single point]
59 | CC1=C(c2ccc(C)cc2)S(=O)(=O)NC1=NCCCN1CCN(c2cc(C)ccc2C)CC1 |  | inconclusive: 25.1 µM [inhibitor, single point]
60 | CC(=O)N1C(=O)C2(C(C#N)=C(N)Oc3c2c(C)nn3-c2ccccc2)c2ccccc21 (stereo not given) |  | inconclusive: 8.91 µM [inhibitor, partial curve, poor fit]
61 | COC(=O)N/N=C/c1cc(C)n(-c2cccc3ccccc23)c1C |  | inactive
62 | O=C1CN(S(=O)(=O)c2cc(C(F)(F)F)ccc2Cl)CCN1 | inactive: 17.1% [at 12.7 µM] | 
63 | Cc1ccc2[nH]c3c(=O)n(CCCN4CCOCC4)cnc3c2c1 |  | inconclusive: 1.78 µM [inhibitor, partial curve, poor fit]
64 | Cc1nn(-c2ccccc2)c(C)c1NC(=O)COC(=O)CC(C)c1ccccc1 (stereo not given) |  | inconclusive: 56.2 µM [inhibitor, partial curve, poor fit]
65 | O=C(CN1C(=O)c2ccccc2S1(=O)=O)N1CCc2ccccc21 |  | inconclusive: 39.8 µM [inhibitor, partial curve, poor fit]
66 | Cc1ccc(S(=O)(=O)c2nc(S(C)(=O)=O)sc2N2CCC3(CC2)OCCO3)cc1 |  | inactive
67 | O=C(COC(=O)c1cccnc1Cl)Nc1cc(S(=O)(=O)N2CCCCCC2)ccc1Cl |  | inactive
68 | CCOC(=O)c1cc(S(=O)(=O)NC2CCN(C(=O)OCC)CC2)cn1C |  | active: 50.1 µM
69 | COC(=O)C1Sc2[nH]c(=O)sc2C(c2ccc(Cl)cc2)C1C(=O)OC (stereo not given) |  | inconclusive: 39.8 µM [inhibitor, partial curve, poor fit]
70 | S=c1[nH]nc(-c2cccc(Cl)c2)n1Cc1ccccc1 |  | inconclusive: 3.98 µM [inhibitor, full curve, poor fit]

From PubChem BioAssay AID504332 (National Center for Advancing Translational Sciences (NCATS), 2011)
